This is an account of results in the supplement of paper PMC11417369.

± gives the standard deviation of the averaged measurements. Some of the results follow.

The subject of the experiment is PfAP2-G AP2 domain (GST-tagged). The experiment is described as follows: gcPBM binding intensity (ln(normalized median fluorescence intensity)); higher = stronger DNA binding. In a few lines:
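Binding intensity is the highest Masliner-normalised natural-log median intensity over replicate spots in either probe orientation. To obtain it, GST-tagged P. falciparum DNA-binding domains made in E. coli were incubated for 1 h on an Agilent 4 × 180k array of primer-extended double-stranded 36-bp intergenic genomic probes plus negative controls. Detection used Alexa488 anti-GST antibody with scanning at 488 nm.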
As to “CAACATTTATATTTTACACACATCATTTAAGCGCTT [CACACA_site992]”, the “gcPBM binding intensity (ln)” value was 10.09 ± 0.078.

For the sequence “TTATTATATAAAATAAATAACAAAAAAAATAAAATA [GTGCAC_negctrl_site548]”, the “gcPBM binding intensity (ln)” value was 9.675 ± 0.092.

For the sequence “ATTGTTTTATATAGAACACACATAAAAATCTATATG [CACACA_site6681]”, the “gcPBM binding intensity (ln)” value was 10.1 ± 0.13.

Regarding “CCTATCCATACATATACACACATATCTATTTATATA [CACACA_site1669]”, the “gcPBM binding intensity (ln)” value was determined as 10.15 ± 0.035.

“TTTGAAATAAATAATGCACACTCTACATATATACGT [CACACA_site2244]”: the “gcPBM binding intensity (ln)” value came to 9.94 ± 0.042.

Turning to “ATATTATCATATTCGAGTACACGAAGTATTATTGCA [XGTACX_site6765]”, the “gcPBM binding intensity (ln)” value was 11.4 ± 0.92.

“AATAAAGTAATAACTACACACATTTATAAAAAAGTA [CACACA_site3753]”: the “gcPBM binding intensity (ln)” value was 9.885 ± 0.007.

Take “TAATAATAATTAAATTGTACATATAATATAATATAA [XGTACX_site8554]”: the “gcPBM binding intensity (ln)” value came out at 10.9 ± 0.69.

Turning to AACATATTGGATTTAGTGCACATATATATCATAATA, the “gcPBM binding intensity (ln)” value was found to be 10.2 ± 0.13.

Consider “AAAAATTACCCTTGTGTACACATATATTATCTGTAT [CACACA_site4513]”, for which the “gcPBM binding intensity (ln)” value amounted to 11.6 ± 0.95.

Consider “TATAAGCTTTCAATGTGTACATATTATTTTATTATT [XGTACX_site3988]”, for which the “gcPBM binding intensity (ln)” value is 11.4 ± 0.81.

“TCTTATAAACATGTATATATTAAAAAAAAAAAAAAA [TGCATGCA_negctrl_site86]”: the “gcPBM binding intensity (ln)” value is 9.59 ± 0.47.

Consider “AGGTGATTAATATATACACACATACATATATATATA [CACACA_site8913]”, for which the “gcPBM binding intensity (ln)” value amounted to 9.95 ± 0.23.

For “TAAAAATTACTATATGAACACACATGATTAGATATA [CACACA_site9012]”, the “gcPBM binding intensity (ln)” value was determined as 9.965 ± 0.049.

Consider “TAATTTTCAATAATTTGTACATAATTTTTATAAATT [XGTACX_site8133]”, for which the “gcPBM binding intensity (ln)” value worked out at 10.9 ± 0.59.

Turning to “ATATATCATCATGTATGTACACACATACATATATTA [XGTACX_site2814]”, the “gcPBM binding intensity (ln)” value was determined as 11.2 ± 0.74.

For “TATGCTTTTACAATGTGTACTTATATTTTTCACAGG [XGTACX_site6201]”, the “gcPBM binding intensity (ln)” value was determined as 11.5 ± 0.95.

On to “AACCATAAAAAGTGTACACATATAAAAAATATGGAA [CACACA_site4199]”, for which the “gcPBM binding intensity (ln)” value was found to be 11.7 ± 1.1.

Take TATATAAATTAACCAGTGCATTATTTGGAAATTATT: the “gcPBM binding intensity (ln)” value was determined as 9.89 ± 0.042.

Take “TAAAAAAATTTTACAAGTACAAAAAAATGTAATAAA [XGTACX_site4829]”: the “gcPBM binding intensity (ln)” value worked out at 11.2 ± 0.57.

Take “ATATATATAGATCGAAGTACAGATAGAATGAAAATA [XGTACX_site2695]”: the “gcPBM binding intensity (ln)” value came out at 11.2 ± 0.64.

In the case of “ACAAGAGAAAAAAATACACACAAGATAAAAATGTAT [CACACA_site607]”, the “gcPBM binding intensity (ln)” value is 9.925 ± 0.092.

In the case of “ACCATATGTACATTTTTTTTTTTTTTTTTTTTTTTT [CACACA_negctrl_site1188]”, the “gcPBM binding intensity (ln)” value turned out to be 11.5 ± 0.72.

On to “ATATATATATAATGTAGTACTATTTAATAATAAGCC [XGTACX_site1263]”, for which the “gcPBM binding intensity (ln)” value was 11.3 ± 0.69.

For “TATAATCATATACACGCATGTATAAAATTTAATACT [TGCATGCA_site700]”, the “gcPBM binding intensity (ln)” value stood at 9.79 ± 0.13.

“ATATGTTACAAAGATTGTACTTATTAAGGAGCGACT [XGTACX_site5094]”: the “gcPBM binding intensity (ln)” value amounted to 11.4 ± 0.86.

As to “TAATATATGTATTATGCATGTGAATAAGCACTTGAT [TGCATGCA_site848]”, the “gcPBM binding intensity (ln)” value came to 10.19 ± 0.092.

Regarding “AAAAAAAAAAAAAAAGCACACACCAATGAGCAGCTT [CACACA_site1845]”, the “gcPBM binding intensity (ln)” value worked out at 10.4 ± 0.35.

In the case of “CACACCCACAGACACACACACACATATATAATATAT [CACACA_site594]”, the “gcPBM binding intensity (ln)” value came to 10.3 ± 0.36.

With “ATGTATATAAATAGTAGTACATTATTTCACACTGTA [XGTACX_site2061]”, the “gcPBM binding intensity (ln)” value was 11.4 ± 0.97.

Regarding “TATTGTATCCTTAATGCATGCACCAAATAAAAAAAG [TGCATGCA_site541]”, the “gcPBM binding intensity (ln)” value is 10.5 ± 0.54.

Consider “ACATTCAAGCGTAATTGTACATACATATATATATAT [XGTACX_site8876]”, for which the “gcPBM binding intensity (ln)” value stood at 11 ± 0.6.

In the case of “TTTAACTTTTATATAACACACATATTGTAATTATGT [CACACA_site6486]”, the “gcPBM binding intensity (ln)” value is 9.825 ± 0.049.

Regarding “AAATAAAAATAAAATAAAATAAAATTAAATGGGAAT [GTGCAC_negctrl_site349]”, the “gcPBM binding intensity (ln)” value was determined as 9.82 ± 0.11.

Take “GTTTTATATTATATATGTACATATCCATGAGATATA [XGTACX_site3328]”: the “gcPBM binding intensity (ln)” value was determined as 11.1 ± 0.64.

As to “TGTAAACATAAGATATGTACTTATATCATATTATAA [XGTACX_site6883]”, the “gcPBM binding intensity (ln)” value is 11.1 ± 0.76.

As to “ATGACAATTCAAAATTGTACATAAAAAAAAAAAAAA [XGTACX_site7560]”, the “gcPBM binding intensity (ln)” value stood at 11 ± 0.93.

In the case of “TTAAATGTTAAAAGGGTGCTATTATATAAATGAAAA [GTGCAC_site9882]”, the “gcPBM binding intensity (ln)” value came out at 10.1 ± 0.14.

Take AAAAAACATTTTCGAGTGCATGTTTTGCTTTATTTC: the “gcPBM binding intensity (ln)” value came to 9.7 ± 0.23.

For “AATAATTTGGTCTTATCAAAAATTAAAAATAAATAA [XGTACX_negctrl_site430]”, the “gcPBM binding intensity (ln)” value is 10.2 ± 0.54.

On to “AAAAAAATTTGGCATACACACACACCCCCACCCACA [CACACA_site8094]”, for which the “gcPBM binding intensity (ln)” value worked out at 11.3 ± 0.55.

On to “TTCATATGTTTTAACACACACGCATATATTATATAT [CACACA_site2007]”, for which the “gcPBM binding intensity (ln)” value was determined as 10.02 ± 0.049.

With “TATATATATTATAATACATGCGGTGATGAAAGTTAT [TGCATGCA_site924]”, the “gcPBM binding intensity (ln)” value is 10.2 ± 0.2.

Turning to “TATAAATATAGACACACACACACCAAAGCGTAGCGC [CACACA_site6179]”, the “gcPBM binding intensity (ln)” value worked out at 10.1 ± 0.16.

As for “TTTTTTTATATAGACACAAAAGAAAATTACATATAC [CACACA_negctrl_site235]”, the “gcPBM binding intensity (ln)” value was determined as 10.4 ± 0.5.

For “TATAATATATATATATTTATATATATCTTCCTAATC [GTGCAC_negctrl_site682]”, the “gcPBM binding intensity (ln)” value amounted to 9.38 ± 0.19.

Regarding “AATATTTATTTTATATGTACATAATTTATTTTTAAT [XGTACX_site776]”, the “gcPBM binding intensity (ln)” value was determined as 11.3 ± 0.66.

Consider “AAAAAAAAAAAAAAAACACACAAGGATCATATATAT [CACACA_site3812]”, for which the “gcPBM binding intensity (ln)” value was 10.2 ± 0.19.

Turning to “GATTTGTCTTACAGTGGTACACTTATATATATGTGA [XGTACX_site2899]”, the “gcPBM binding intensity (ln)” value was determined as 11.4 ± 0.82.

In the case of “TTTTTAAAAAAACATACACACAAAAAAAAAAAAAAA [CACACA_site3935]”, the “gcPBM binding intensity (ln)” value is 9.85 ± 0.45.

Consider “TATGAAGTACACAATACACACTAATTATATATAAAT [CACACA_site5444]”, for which the “gcPBM binding intensity (ln)” value is 11.5 ± 1.1.

For the sequence “TAAATAAATTTATACACACACACACCCATATATATA [CACACA_site849]”, the “gcPBM binding intensity (ln)” value came to 10.29 ± 0.085.

On to “AAAAAATCAAAACACACACACACACTAGAAAAAAAA [CACACA_site4909]”, for which the “gcPBM binding intensity (ln)” value came to 10.1 ± 0.26.

For “TTATGTTGTAAATGCACACATACATATACGCAGTTT [CACACA_site3015]”, the “gcPBM binding intensity (ln)” value is 10.04 ± 0.028.

As to “AATGGAGTTTATAAGTATAAACGAGGGATACCTAAA [XGTACX_negctrl_site483]”, the “gcPBM binding intensity (ln)” value was found to be 10.3 ± 0.28.

As for “AATATAAATAATAGTAGTACATATATATCTCAGAAA [XGTACX_site4055]”, the “gcPBM binding intensity (ln)” value turned out to be 11.3 ± 0.78.

In the case of “AATAAAAATATATCCACACACATATATATATCTGTA [CACACA_site4481]”, the “gcPBM binding intensity (ln)” value was 9.755 ± 0.021.
